{"source": "the RNAGym collection of RNA variant scans (doi:10.7554/elife.90254)", "parents": {"B1": {"name": "LINE1-mini (parent)", "chain": "GGCAGAGCUCAACACAGCGUGGCAAAGUGGCUGUGGCUAGACUGCC"}}, "note": "The source gives no read counts; variants with many changes may rest on few reads."}
{"variants_of": "B1", "experiment": "self-cleavage, relative activity (ratio to wild type); higher = more cleavage; in vitro, sequencing; the parent is a self-cleaving ribozyme"}
{"variant": "CGCAGAGCUCGACAUAGCGUGGUAAAGCGGCUGUGGCUUGACUGCC", "self-cleavage": 0.01}
{"variant": "CGCAGAGCUCUAGGCAGCGUGGCAAAGUGGCUGUGGCUAGACUGCC", "self-cleavage": 0.04}
{"variant": "CGCCGAGCUCAAUACAGCGUGGCAUAGUGGCUGUGGCUAUACUGCC", "self-cleavage": 0.02}
{"variant": "CGCUGAGCUCAACACAGCGUGGCAAAGUGGCUCUGGCUAGACUGAC", "self-cleavage": 0.06}
{"variant": "AGCAGAGCUCAACACAGCGUGGCAAAGAGGCUGGGGCUAGACUGUC", "self-cleavage": 0.01}
{"variant": "AGCAGAGCUCAACACAGCGUGGCAAAGUGGCUGAGGCUAGGCUGCC", "self-cleavage": 0.03}
{"variant": "AGCAGAGCGCAACACAGCGUGGGAACGUGGCUGUGCCUAGACUGCC", "self-cleavage": 0.35}
{"variant": "CGCCGAGCUCAACACAGCUGGGCAAAGUGGCUGUGGCUAGACCGCC", "self-cleavage": 0.03}
{"variant": "AGCAGAGCUCAACACAGCGAGGGAAACUGGCUGUGGCUAGACUACC", "self-cleavage": 0.04}
{"variant": "AGCAGAGCUCAACACAGCGCGGCAAAGUGGCGGUGGCUAGACUGGC", "self-cleavage": 0}
{"variant": "CGCAGCGCUCAACACAGCGUGGCAAAGAGGCUGUGGCUAGACUGCC", "self-cleavage": 0.02}
{"variant": "CGCAGUGCUCAACACAGCGUGGCAAAGUGGCUGUGGCUAGGCUGCU", "self-cleavage": 0.31}
{"variant": "CGCUGAGCUCGACACAGCGUGGCAAAGUGGCUAAGUCUAGUCUGCC", "self-cleavage": 0.01}
{"variant": "AGCAGAGCUCAACACAGCGGGGCAAAGUGGCUGUGGCUAGAGUGCC", "self-cleavage": 0.01}
{"variant": "AGCAGAGCGCAACACAGCGUGGCAAAGUGGCUGUGGCUAGACAGCC", "self-cleavage": 0.16}
{"variant": "CGCAGGGGUCAACACAGCGUGGCAAAGUGGCUGGGGCGAGACUGUC", "self-cleavage": 0}
{"variant": "AGCAGAGCUCAACACAGCGUGGCAAAGUGGCUGAGGCUUGACUGGC", "self-cleavage": 0.08}
{"variant": "AGCAGAGCUCAACACAGCGUGGCAAAGUGGCUGAGGGUAGACUGCC", "self-cleavage": 0.01}
{"variant": "CGCAGCGCUCAACACAGCGUGGUAAAGUGGCUGUGGGUAGACUGCC", "self-cleavage": 0.01}
{"variant": "CGCAGUGCUCAACACAAAGUGGCAAAGUGGCUGUGGCUAGUCUGCC", "self-cleavage": 0.01}
{"variant": "CGCAGAGCUCCACACAUCGUGGCAAAGUGGCUGCCGCUAAACUGCC", "self-cleavage": 0}
{"variant": "AGCAGAGCUCAACACAGCGUGGCAAAGUGGCUGUGGCGAGAUUGCC", "self-cleavage": 0.07}
{"variant": "CGCCGAGCUCAACACAGCGUGGCAAAGUGGCUGUGGCAAGACUGCC", "self-cleavage": 0.05}
{"variant": "CGCAGCGCUCAACACACCGUGGCAAAGUGGCUGUUGCUAGACUGCC", "self-cleavage": 0.03}
{"variant": "CGCAGCGCUCAACAGAGCGGGGCAAAGUGGCUGUGGCUAUACAGCC", "self-cleavage": 0}
{"variant": "CGCCGAGCUCUACACAGCGUGGCAAAGUGGCUGUGGCUAGACGGCC", "self-cleavage": 0}
{"variant": "CGCUGAGCUCAACACACCGUGGCAAAGUGGCUUGGGCUAGACUGCC", "self-cleavage": 0.01}
{"variant": "CGCAGGGCUCAACACAGCGGGACAAAGUUGCUGUGGCUAGACUGCC", "self-cleavage": 0.02}
{"variant": "CGCGGAGAUCAAGACAGCGUGGCAAAGUGGCUGUGGGUAAACUGCC", "self-cleavage": 0.09}
{"variant": "CGCAGAGCUCACCACAGCGUGGCACAGCGGCUGUGGCUAGACUUCC", "self-cleavage": 0.01}
{"variant": "CGCAGAGCUCGACACCGCGUGGGAAAGUGGCUGUGGCUAGACUGCC", "self-cleavage": 0}
{"variant": "CGCUGAGAUCAACACAGCGUGGCGAGGUGGCUAUGGCUAGAAUGCC", "self-cleavage": 0.07}
{"variant": "AGCAGAGCGCAACACAGCGUGGCAAAGUGUCUGUAGCUAGACAGCC", "self-cleavage": 0}
{"variant": "AGCAGAGCUCAACACAGCGGGGCAAAGUACCUGUGGCUAGACUGCC", "self-cleavage": 0.1}
{"variant": "CGCGGAGCUCAACACAGAAUGGUAAAGUGGCCGUGGCUCGACUGCC", "self-cleavage": 0.01}
{"variant": "AGCAGAGCUCAACACAGCGUGGCAAAGUGGCAGUGGCUAGACCGCC", "self-cleavage": 0.04}
{"variant": "AGCAGAGCUCAACACAGCGUGGCAAAGUGGCAGUGGCUAGACAGCC", "self-cleavage": 0.01}
{"variant": "CGCAGGGCUCACCACAGCGUGGCGAAGUGGCUGUGGCUAGACUGUC", "self-cleavage": 0}
{"variant": "AGCAGAGCGCAACACAUCGUGGCAAAGUGACUGUGGCUAGACUGCA", "self-cleavage": 0.13}
{"variant": "AGCAGAGCUCAACACAGCGGGGCAAAGUGGGUGUGGGGAUACUGCC", "self-cleavage": 0.04}
{"variant": "CGCAGAGCUCACGACGGCGUGGCAAAGUAGCUGUGGGUAGACUGCC", "self-cleavage": 0}
{"variant": "CGCAGAGCUCCACACAGCGUGGCAAAGUGGCUGUGGCUAGACAGCC", "self-cleavage": 0.01}
{"variant": "CGCAGCUUUCUACACAGCGUGGCAAAGUGGCUGUGGCUAGACUGCC", "self-cleavage": 0.01}
{"variant": "CGCAGAGCUCCACAAAGCGUAGUAAAGUGGCUGUGGCUAGACUGCC", "self-cleavage": 0.01}
{"variant": "CGCCGAGCUCAACACAGCGUGGCAAAGUGUCUUUGGCUAGACUGCC", "self-cleavage": 0.01}
{"variant": "CGCAGAGCUCCUCACAGCGUGGCAAAGUGGCUGUGGCUUGACUACC", "self-cleavage": 0.01}
{"variant": "CGCGGAGCUCACCACUCCGUGGCAAAGUGGCUGUGGCUAGAAUUCC", "self-cleavage": 0}
{"variant": "CGCAGAGCUCUACACAGCGUGGCAAAGUGGCAGUGGCGAGACUACC", "self-cleavage": 0}
{"variant": "CGCAGUGCUCAACACAGGGUGGCAAAGUGGCUGUGGCUAGACUGCC", "self-cleavage": 0.06}
{"variant": "CGCUGAGCUCAACACAGCGUGCCAAAGUGGAUGUGGCUAGACUGCG", "self-cleavage": 0.05}
{"variant": "CGCGGAGCUCAACACAGCGCGGCAAAGAGGCUGUGGCUAGCUUGCC", "self-cleavage": 0.02}
{"variant": "AGCAGAGCUCAACACAGCGUGGCAAAGAGCCUGUGGCUAGACUGCC", "self-cleavage": 0.99}
{"variant": "CGCCGAGCUCAACACAGCGUGGCAACGUGGCUGUGGCUAGACUGCC", "self-cleavage": 0.02}
{"variant": "AGCAGAGCUCAACACAGCGCGGCAGAGUGGCCGUGGCAAGACUGUC", "self-cleavage": 0.06}
{"variant": "CGCAGGGCUCAAAACAGCGUGGCAAAGUGGCCGUGGCUAGACUGCC", "self-cleavage": 0}
{"variant": "CGCAGCGCUAAACACAGCGUGGAAAAGUGGCUGUGGCUAGACUGCC", "self-cleavage": 0.01}
